Data published in PMC4336329 (PLoS ONE, 2015).
The whole screen tested about 310,000 compounds, of which about 14,000 (4.5%) showed an effect of 50% or more. The effect is printed as a negative number. This is one part of the list.

Molecular target: human ether-à-go-go-related gene (hERG) potassium channel (human, UniProt Q12809)
Experiment: primary screen, population patch clamp on CHO cells stably expressing hERG
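Further: peak tail current of the secondary pulse compared with the same well before compound.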

Sequence of human ether-à-go-go-related gene (hERG) potassium channel (Q12809 whole entry, looked up): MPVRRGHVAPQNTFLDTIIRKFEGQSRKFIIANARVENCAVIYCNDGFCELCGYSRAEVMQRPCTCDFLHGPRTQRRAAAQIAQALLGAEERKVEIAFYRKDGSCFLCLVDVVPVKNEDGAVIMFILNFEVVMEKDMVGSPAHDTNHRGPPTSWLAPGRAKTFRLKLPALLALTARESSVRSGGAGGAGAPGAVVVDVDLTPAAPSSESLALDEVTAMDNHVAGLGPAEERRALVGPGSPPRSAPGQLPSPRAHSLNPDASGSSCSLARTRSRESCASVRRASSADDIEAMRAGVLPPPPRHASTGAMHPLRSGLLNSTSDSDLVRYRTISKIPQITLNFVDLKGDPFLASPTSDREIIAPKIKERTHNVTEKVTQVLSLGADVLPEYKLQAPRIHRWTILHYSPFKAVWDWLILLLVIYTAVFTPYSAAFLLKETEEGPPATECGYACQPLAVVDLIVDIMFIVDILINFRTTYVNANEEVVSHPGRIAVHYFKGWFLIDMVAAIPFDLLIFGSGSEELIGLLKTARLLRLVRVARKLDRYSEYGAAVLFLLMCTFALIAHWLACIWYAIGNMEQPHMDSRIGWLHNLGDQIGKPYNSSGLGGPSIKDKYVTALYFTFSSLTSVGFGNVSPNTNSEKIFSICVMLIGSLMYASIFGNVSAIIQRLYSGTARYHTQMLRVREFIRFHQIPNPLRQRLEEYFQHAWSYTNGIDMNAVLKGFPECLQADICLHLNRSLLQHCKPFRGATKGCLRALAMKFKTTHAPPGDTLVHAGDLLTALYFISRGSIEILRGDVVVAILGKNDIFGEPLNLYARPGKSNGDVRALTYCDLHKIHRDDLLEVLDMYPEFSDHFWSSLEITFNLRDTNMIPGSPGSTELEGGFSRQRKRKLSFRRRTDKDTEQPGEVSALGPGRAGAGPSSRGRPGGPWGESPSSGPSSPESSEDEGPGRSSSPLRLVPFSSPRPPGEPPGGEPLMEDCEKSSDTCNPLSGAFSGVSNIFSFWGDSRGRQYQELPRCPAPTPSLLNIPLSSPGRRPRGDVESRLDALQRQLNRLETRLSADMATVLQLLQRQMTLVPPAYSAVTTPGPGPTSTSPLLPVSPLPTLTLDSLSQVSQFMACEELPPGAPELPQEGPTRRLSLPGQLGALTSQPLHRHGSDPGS

| Structure (SMILES) | hERG current change (%, negative = inhibition) at 10uM |
| --- | --- |
| Brc1ccc(/C=N/Nc2ccc3ccccc3n2)cc1 | -13.1% |
| O=c1[nH]ncc(N2CCCC2)c1Cl | 20.9% |
| CCOC(=O)N1CCN(Cc2nc(N)nc(Nc3ccccc3C)n2)CC1 | -14.9% |
| O=C(O)Cn1ccnc1 | 4.81% |
| CNC(=O)CSCc1c(F)cccc1Cl | 17.8% |
| CCCc1cc(=O)oc2cc(OCC(=O)Nc3ccc(CN4CCOCC4)cc3)c(Cl)cc12 | -3.61% |
| CCc1nnc(NC(=O)C2CCCCN2S(=O)(=O)c2ccccc2)s1 (stereo not drawn) | 8.18% |
| COc1ccc(C(=O)CSc2nnnn2C)c(OC)c1 | 22.2% |
| Cc1nc(Cl)c(C(=O)NCCc2ccccc2)c(C)c1[N+](=O)[O-] | 15.5% |
| O=C(NCc1ccccn1)Nc1ccc(F)cc1 | 11.9% |
| CC(=O)Nc1ccc(NC(=O)C2CCCN2C(=O)Nc2cccc(F)c2)cc1 (stereo not drawn) | 24.5% |
| Cc1cc(NC(=O)CSc2nnc(CNc3ccc(F)cc3)n2C2CCCCC2)no1 | -11.9% |
| O=C(CSc1nnc(-c2ccncc2)o1)NCc1ccccc1Cl | -2.67% |
| Cc1nnc(SCC(=O)Nc2nc(-c3ccccc3)cs2)n1N | 2.68% |
| CCOc1ccc(N2CC(C(=O)NC3=NCCS3)CC2=O)cc1 (stereo not drawn) | 3.35% |
| COc1cc(NS(=O)(=O)c2ccc(NC(=S)NC(=O)c3ccc(Br)cc3)cc2)ncn1 | 15.6% |
| COc1ccc(/C=C/c2cc(-c3ccc(C)cc3)o[n+]2C)cc1.F[B-](F)(F)F | -77.1% |
| CCCC(=O)N1c2ccc(-c3csc(N)n3)cc2CC1C (stereo not drawn) | -7.26% |
| Cc1occc1C(=O)NNC(=O)NC12CC3CC(CC(C3)C1)C2 | 2.5% |
| O=C(O)c1cc(NS(=O)(=O)c2ccc(N3CCOCC3)c([N+](=O)[O-])c2)cc(C(=O)O)c1 | 5.06% |
| O=C1CN(C(=O)/C=C/c2ccccc2F)c2ccccc2N1 | -2.56% |
| N/C(=N\OC(=O)COc1ccc(Br)cc1)c1cccnc1 | -3.21% |
| Cc1cc(-n2c(C)cc(C(=O)COc3ccc(F)c(F)c3)c2C)no1 | -34.4% |

| Structure (SMILES) | hERG current change (%, negative = inhibition) at 10uM |
| --- | --- |
| Cc1cccc(C)c1NC(=O)CN(c1ccccn1)S(=O)(=O)c1ccccc1 | 15.7% |
| COc1ccccc1/C=C/C(=O)NC(=S)N(C)C1CCCCC1 | 1.35% |
| CCOc1ccc(C(=O)Nc2cccc(-n3cnnn3)c2)cc1OCC | -40.4% |
| O=c1[nH]c2ccc(Cl)cc2c(O)c1Cc1ccccc1 | 12.6% |
| CCC(=O)Nc1cc(C(=O)O)ccc1Sc1ccccc1 | 34.5% |
| CNC(=S)N(Cc1ccc(OC)cc1)Cc1cc2ccc(C)cc2[nH]c1=O | 14% |
| O=C(CNc1cc(S(=O)(=O)N2CCCC2)ccc1OCC(F)(F)F)Nc1ccc(SC(F)F)cc1 | -14.2% |
| CCc1cccc(NC(=O)c2ccc3c(=O)n4c(nc3c2)CCCCC4)c1 | -76.6% |
| COc1cc(OC)cc(C(=O)N2CCN(c3ccc(N4CCOCC4)nn3)CC2)c1 | -4.52% |
| Cc1ccc(-c2nc(C#N)c(N3CCCCC3)o2)cc1 | 4.17% |
| CCN(Cc1ccc(OC)c(F)c1)C(=O)CCl | 54.4% |
| COc1ccc(CCNc2cc(C)nc3c(-c4ccccc4)cnn23)cc1OC | -4.34% |
| CCOc1ccc(C(C(=O)NC2CCCCC2)N(C(=O)c2ccco2)c2ccc(-n3cnnn3)c(C)c2)cc1 (stereo not drawn) | -21.8% |
| CC1CCCN(S(=O)(=O)CCNC(=O)c2ccc3c(c2)OCO3)C1 (stereo not drawn) | 3.98% |
| CCOC(=O)C1CCN(C(=O)c2ccc3c(=O)n4c(nc3c2)CCCCC4)CC1 | 0.673% |
| Cc1cccc(Nc2cc(C)nc3ccccc23)c1.Cl | -65.4% |
| S=C(Nc1ccccc1Cl)N(CCN1CCCCC1)Cc1ccco1 | -42.3% |
| O=C(c1cc([N+](=O)[O-])cc([N+](=O)[O-])c1)N1CCN(Cc2ccc3c(c2)OCO3)CC1 | -58.2% |
| Cc1[nH]c(C)c(S(=O)(=O)Nc2cccc(Cl)c2C)c1C(=O)N1CCCC1 | -7.43% |
| COC(=O)CC(NC(=O)c1ccc(C)cc1)c1ccccc1 (stereo not drawn) | 12% |
| COC(=O)c1c(C)[nH]c(-c2csc(N)n2)c1C | 9.99% |
| COc1ccccc1CNC(=O)CSC1=NCCS1 | 6.46% |
| Br.Cc1ccc(Nc2nc(-c3sc(N)nc3C)cs2)cc1 | -1.9% |

| Structure (SMILES) | hERG current change (%, negative = inhibition) at 10uM |
| --- | --- |
| COc1ccc(N2C(=O)CSC23C(=O)N2c4c(cccc43)C(C)=CC2(C)C)cc1 (stereo not drawn) | 3.11% |
| CN(C)CCCNS(=O)(=O)c1ccc(-n2nnc3ccccc32)c([N+](=O)[O-])c1 | -2.27% |
| COCCCn1c(=S)[nH]c2sc3c(c2c1=O)CCCC3 | 8.85% |
| CCN(CC(=O)NCc1ccccn1)S(=O)(=O)c1ccc(OC)cc1 | 12.4% |
| COc1ccc(/C=C/C(=O)OCC(=O)Nc2ccc(C)cc2)cc1S(=O)(=O)N1CCOCC1 | -28.6% |
| COc1ccc(S(=O)(=O)NCC2CCCN(C(=O)CNC(C)=O)C2)cc1 (stereo not drawn) | 24.4% |
| Cc1ccc(N2CCN(C(=O)c3ccccc3)CC2)c(C)c1 | -18.4% |
| CN(CC(=O)Nc1ccccc1Cl)C(=O)CN1C(=O)C2CCCCC2C1=O (stereo not drawn) | -4.54% |
| CCN(CC)C(=O)COn1c(SCC(=O)N(CC)CC)nc2ccccc2c1=O | -3.82% |
| CCCc1nnc(SCC(=O)Nc2ccc(NC(C)=O)cc2)n1-n1cccc1 | -11% |
| CC(C)NC(=O)c1cccc(Cn2cc(Cl)cn2)c1 | 3.17% |
| Cn1cccc1CNCCc1ccccc1F | -13.6% |
| S=c1[nH]nc(CCc2nc3ccccc3[nH]2)n1-c1cccc(Cl)c1 | 35% |
| Cc1nn(C)c(C(=O)NNC(=S)NC2CCCCC2)c1Br | 3.97% |
| CCC(=NCC1CCCO1)c1c(O)[nH]c(=O)[nH]c1=O (stereo not drawn) | -5.49% |
| COc1ccc(-c2csc(NC(=S)NC(=O)c3ccco3)n2)cc1 | 16.1% |
| CS(=O)(=O)N1CCC(C(=O)NCc2ccccc2)CC1 | 15.9% |
| CC1(C)Cc2nc3oc4c(=O)n(CC(=O)Nc5ccccc5)cnc4c3cc2CO1 | 5.24% |
| COc1ccc(NC(=O)CC2Oc3ccc(C)cc3NC2=O)cc1 (stereo not drawn) | 11.3% |
| CCNC(=S)NNc1nc(N2CCOCC2)nc(N2CCOCC2)n1 | 13.8% |
| Cn1c(=O)c2c(nc(CN3CCN(C(=O)c4ccco4)CC3)n2Cc2ccccc2)n(C)c1=O | -40.7% |
| N#CC1=C(N)SC(N)=C(C#N)C1C1CC=CCC1 (stereo not drawn) | -2.71% |
| O=C(COc1cccc(NC(=O)c2cccc([N+](=O)[O-])c2)c1)c1ccc(Br)cc1 | 6.94% |

| Structure (SMILES) | hERG current change (%, negative = inhibition) at 10uM |
| --- | --- |
| Cc1cc(S(=O)(=O)N2CCCC(C)C2)ccc1-n1cnnn1 (stereo not drawn) | 5.72% |
| CC1(C)CC(=O)C(C=NCCN2CCN(C(=O)c3ccc(Br)cc3)CC2)=C(O)C1 | -48.2% |
| Cc1cccc(Nc2ncnc(N)c2[N+](=O)[O-])n1 | 17.8% |
| O=[N+]([O-])c1ccc(S(=O)(=O)c2ccccc2)nc1 | 15.7% |
| CC1CCCCN1C(=O)c1cccc(NC2=C(Cl)C(=O)N(Cc3ccccc3)C2=O)c1 (stereo not drawn) | -15.8% |
| Cc1ccc(CN2C(=O)c3ccccc3C2C(=O)NCC2CCCO2)cc1 (stereo not drawn) | -16.4% |
| CC(C)(C)c1ccc(COC(=O)Nc2ccc(F)cc2)cc1 | 11.8% |
| Cc1ccc(C)c(S(=O)(=O)NNC(=O)Nc2ccccc2Cl)c1 | 5.51% |
| Cc1cc2oc(=O)cc(CNc3ccccc3F)c2cc1O | 14% |
| NC(=O)COc1ccc(/C=C2\C(=O)ON=C2c2ccccc2)cc1 | 14% |
| CC(C)(C)C(=O)COC(=O)C1CC(=O)N(c2ccccc2)C1 (stereo not drawn) | 15.9% |
| COc1ccc(NC(=O)c2cc(-c3cc(C)cc(C)c3O)n[nH]2)cc1Cl | -4.52% |
| CCOc1cc(-c2nc(C)c(C(C)=O)n2O)ccc1OCC(=O)Nc1cccc(C)c1 | -23.5% |
| CCOC(=O)C1=NN(c2ccccc2)C(c2ccccc2)CC1=O (stereo not drawn) | 5.31% |
| CC1Sc2ccc(S(=O)(=O)CCC(=O)NCc3ccc(Cl)cc3)cc2NC1=O (stereo not drawn) | -28.7% |
| CN(C(=O)COC(=O)C12CC3CC(CC(C3)C1)C2)c1c(N)n(Cc2ccccc2)c(=O)[nH]c1=O | 7.54% |
| Cc1cc(C)n2nc(SCC(=O)N3CCOCC3)nc2n1 | 12% |
| CCOC(=O)C(C(=O)OCC)N(C#N)c1nc(N(C)C)nc(N(C)C)n1 | 4.35% |
| Cc1nc(-c2ccccc2)sc1C(=O)/C=C/N(C)C | -8.92% |
| COc1cc(C)nc(OCCNC(=O)COc2ccc(Cl)cc2C)n1 | -40.5% |
| CCN1C(=O)[C@H]2[C@@H](c3ccc(Cl)cc3)N3C(=O)CN(CCOC)C(=O)[C@@]3(Cc3ccccc3)[C@H]2C1=O | -4.75% |
